This is an account of results in a collection of fitness landscapes (doi:10.1126/science.1257360).

The other results are listed elsewhere or left out. Bounds are passed on as bounds.

B1: PhoQ; a variant is named by its letters at X, in order, P23837 (parent)
chain: MKKLLRLFFPLSLRVRFLLATAAVVLVLSLAYGMVALIGYSVSFDKTTFRLLRGESNLFYTLAKWENNKLHVELPENIDKQSPTMTLIYDENGQLLWAQRDVPWLMKMIQPDWLKSNGFHEIEADVNDTSLLLSGDHSIQQQLQEVREDDDDAEMTHSVAVNVYPATSRMPKLTIVVVDTIPVELKSSYMVWSWFIYVLSANLLLVIPLLWVAAWWSLRPIEALAKEVRELEEHNRELLNPATTRELTSLVRNLNRLLKSERERYDKYRTTLTDLTHSLKTPLXXLQXXLRSLRSEKMSVSDAEPVMLEQISRISQQIGYYLHRASMRGGTLLSRELHPVAPLLDNLTSALNKVYQRKGVNISLDISPEISFVGEQNDFVEVMGNVLDNACKYCLEFVEISARQTDEHLYIVVEDDGPGIPLSKREVIFDRGQRVDTLRPGQGVGLAVAREITEQYEGKIVAGESMLGGARMEVIFGRQHSAPKDE

In the assay the parent is B1. Briefly: enrichment ratio after two sorts for PhoP signalling (ratio (wild type AVST 3.29)); higher = more functional. Particulars: with PhoP (E. coli).
For the variant LPVK, the enrichment ratio is at most 0.25. HYFV: the enrichment ratio was at most 0.25. In the case of LPVW, the enrichment ratio was at most 0.25. Under HGSL stands at most 0.25; under KFQM, at most 0.25; under ATKM, at most 0.25.

As for NEID, the enrichment ratio was at most 0.25.

As to LPCG, the enrichment ratio was at most 0.25. With ITCP, the enrichment ratio is at most 0.25. Under EESF stands at most 0.25. Under HRYC stands at most 0.25. Next, QVVF: at most 0.25; FIRR: at most 0.25; SWLS: at most 0.25. Take TWVR: the enrichment ratio is at most 0.25. Next, IMCT: at most 0.25; TCEP: at most 0.25; GASS: at most 0.25. Next, DNRS: at most 0.25; PTMK: at most 0.25.

As for IKQK, the enrichment ratio is at most 0.25. Under LDSR stands at most 0.25; under TQIM, 17.9. Under TPMK stands at most 0.25; under KKLD, at most 0.25.

Take ESSH: the enrichment ratio is at most 0.25. As for VHEE, the enrichment ratio was at most 0.25.

As for MGQR, the enrichment ratio was at most 0.25. Under AEHV stands at most 0.25. In the case of SECY, the enrichment ratio is 13.7. Take RLGF: the enrichment ratio was at most 0.25. Under TWDF stands at most 0.25; under QQTL, at most 0.25. Next, KIEH: at most 0.25. Under FTTC stands at most 0.25; under DYLQ, at most 0.25. Consider SCRL, for which the enrichment ratio is at most 0.25. Next, WETA: at most 0.25; FDHS: at most 0.25; EHPD: at most 0.25. Next, TWVC: at most 0.25; SSDC: at most 0.25; RPDV: at most 0.25.

LGHM: the enrichment ratio came to 4.31. Next, TYGC: 3.63; NNCV: at most 0.25. Next, NYMV: at most 0.25; RKVI: at most 0.25; PSKL: at most 0.25.

Turning to TKVE, the enrichment ratio is at most 0.25. Under GMFY stands at most 0.25; under KGPT, at most 0.25; under EPDV, at most 0.25.

Take DAHF: the enrichment ratio is at most 0.25.

TPVG: the enrichment ratio is at most 0.25.

For MYCC, the enrichment ratio was at most 0.25. As for PADL, the enrichment ratio is at most 0.25. Next, PHDN: at most 0.25; VQYD: at most 0.25. Next, GSLL: 14.1; QPHH: at most 0.25; LYRQ: at most 0.25.

As for VQLK, the enrichment ratio is at most 0.25. In the case of RHYE, the enrichment ratio was at most 0.25. Under NQVP stands at most 0.25; under NFME, at most 0.25. As to RVKE, the enrichment ratio was at most 0.25.

As for VDSI, the enrichment ratio is at most 0.25.

In the case of EGYK, the enrichment ratio is at most 0.25.

Regarding YVRA, the enrichment ratio is at most 0.25.

For the variant IRYF, the enrichment ratio is at most 0.25. Next, RYWN: at most 0.25; HQTR: at most 0.25. Under PERR stands at most 0.25; under HNST, at most 0.25; under SYIC, 0.411. Under LYTP stands at most 0.25. Take WRNF: the enrichment ratio was at most 0.25. Next, KPRQ: at most 0.25; PQTF: at most 0.25; LEKL: at most 0.25. As to YSTY, the enrichment ratio was at most 0.25.

As to IEIT, the enrichment ratio is at most 0.25.

Turning to LWLE, the enrichment ratio was at most 0.25. As for MLRG, the enrichment ratio was at most 0.25. For KQFN, the enrichment ratio is at most 0.25. Next, RGWR: at most 0.25; MPNH: at most 0.25. Under GVKV stands at most 0.25; under RYYN, at most 0.25; under NQFR, at most 0.25.

Consider ERAI, for which the enrichment ratio is at most 0.25. Under NKAL stands at most 0.25; under AHMN, at most 0.25; under PVKD, at most 0.25.

As to ILKW, the enrichment ratio is at most 0.25.

For SYSN, the enrichment ratio was at most 0.25.

On to AEQR, for which the enrichment ratio is at most 0.25. With WWRM, the enrichment ratio is at most 0.25. Next, RFWY: at most 0.25; ANLM: 13.3; QSYI: 7.28. Next, TFHW: at most 0.25. In the case of AYRV, the enrichment ratio was at most 0.25.

With PEAA, the enrichment ratio is at most 0.25. Next, NSLG: 0.537; WNDE: at most 0.25; RMDW: at most 0.25. Consider SNLV, for which the enrichment ratio amounted to 15.8. QRSY: the enrichment ratio was at most 0.25. Under RNDC stands at most 0.25; under GQLL, 7.89. Next, ERIT: at most 0.25. Next, QEEH: at most 0.25; IVFR: at most 0.25. FELR: the enrichment ratio is at most 0.25. Under IYRF stands at most 0.25; under KTKN, at most 0.25; under GFNS, at most 0.25. Under FTRK stands at most 0.25; under AITQ, 1.78. Next, IIHL: at most 0.25. On to WIHR, for which the enrichment ratio is at most 0.25. Next, VGKQ: at most 0.25.

On to TVDT, for which the enrichment ratio is at most 0.25. Next, LGDR: at most 0.25; NRTI: at most 0.25. Under EESR stands at most 0.25; under LFGL, at most 0.25; under AHFF, at most 0.25. Next, YQHP: at most 0.25. For ARLY, the enrichment ratio turned out to be 1.16. Next, AQSK: at most 0.25; GGWY: at most 0.25. Next, IYDP: at most 0.25; GSEY: at most 0.25; SHCN: 13.2.

Consider WNYD, for which the enrichment ratio was at most 0.25.

For the variant WEFF, the enrichment ratio is at most 0.25. For YVIK, the enrichment ratio was at most 0.25. Under TGGD stands at most 0.25; under HTMG, at most 0.25. Next, RHLR: at most 0.25; WTSH: at most 0.25. Next, ENVY: at most 0.25; GNCK: at most 0.25; AFHQ: at most 0.25. For YPWW, the enrichment ratio was at most 0.25.

With RIFW, the enrichment ratio is at most 0.25. Next, TIYT: 2.66.

In the case of FHAT, the enrichment ratio is at most 0.25. Regarding MFYL, the enrichment ratio is at most 0.25. Next, THQN: at most 0.25; HEEH: at most 0.25. Next, RITN: at most 0.25; YQHS: at most 0.25; EKTH: at most 0.25. Under GCQL stands at most 0.25; under KCGY, at most 0.25.

In the case of HYVR, the enrichment ratio is at most 0.25. Take KSYI: the enrichment ratio is at most 0.25. Next, HWDV: at most 0.25. Under NVRS stands at most 0.25; under VCVI, at most 0.25. In the case of WTHK, the enrichment ratio was at most 0.25. Under PSRS stands at most 0.25; under PHQS, at most 0.25. Regarding DTCC, the enrichment ratio was at most 0.25. Next, EYYV: at most 0.25; LWMT: at most 0.25. Under SQYH stands at most 0.25.

Regarding MDAW, the enrichment ratio was at most 0.25. On to PVNG, for which the enrichment ratio is at most 0.25. Under LMDD stands at most 0.25; under KIKF, at most 0.25; under GWAT, at most 0.25. On to ATMC, for which the enrichment ratio is 11.2. Under GYMA stands at most 0.25; under NESC, at most 0.25; under YQTW, at most 0.25.

On to SPKW, for which the enrichment ratio was at most 0.25. Under MWWC stands at most 0.25. Next, WYWA: at most 0.25; HPHA: at most 0.25. Under AGNY stands at most 0.25; under SNVF, 4.94; under HNFW, at most 0.25. Turning to MVLS, the enrichment ratio was determined as 0.97. Next, PVSF: at most 0.25; IYGV: at most 0.25. Next, RDHP: at most 0.25; SVIE: at most 0.25. Next, LERM: at most 0.25. Regarding IRRH, the enrichment ratio is at most 0.25. Under TATA stands 4.44.
